# Source: the supplement of paper PMC10037445
# ± gives the standard deviation of the averaged measurements. Whole data set: some 2,900 compounds, median “IRF Lucia reporter activity, fold change vs agonist alone” near 0.9, cut for the highest 2% near 2.8. This is one part of the list.
# Legend:
# RAW-Dual [1] = assay: IRF Lucia reporter activity, fold change vs agonist alone; cytotoxicity flag (confluency mask): not cytotoxic; higher = enhanced IRF activity
# Procedure, shortened: (§1)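 RAW-Dual macrophages were seeded in DMEM at 50,000 cells/well in 384-well plates, given 50 nL of library stock by pin tool, and given a PRR agonist 1 h later. Plates were held at 37 °C, 5% CO2 for 20 hours, after which supernatant was read for IRF by QuantiLuc luminescence and for NF-κB by QuantiBlue absorbance at 620 nm. Reporter activity is expressed as fold change over wells that received agonist alone. A well was called cytotoxic when IncuCyte confluency fell below 70% of agonist controls in both mask sets.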
# RAW-Dual [2] = assay: IRF Lucia reporter activity, fold change vs agonist alone; cytotoxicity flag (confluency mask): cytotoxic (confluency <70% of control); higher = enhanced IRF activity
# Procedure, shortened: as §1
# RAW-Dual [3] = assay: IRF Lucia reporter activity, fold change vs agonist alone; higher = enhanced IRF activity; conditions: agonist: MPLA (TLR4) […]
# Procedure, shortened: as §1
# [4] = agonist: 3'3'-cGAMP (STING) 10 ug/mL
# [5] = library stock concentration (final ~1000-fold dilution): 10 mM, cytotoxicity flag (confluency mask): cytotoxic (confluency <70% of control)
# [6] = library stock concentration (final ~1000-fold dilution): 10 mM, cytotoxicity flag (confluency mask): not cytotoxic
smiles,measurement,setting,value
Cc1ccc(NCCCc2ccccc2)c(N)c1 (library stock concentration (final ~1000-fold dilution): 10 mM),IRF Lucia reporter activity,RAW-Dual [1]; [4],0.0185
same,IRF Lucia reporter activity,RAW-Dual [1]; agonist: LPS (TLR4) 0.1 ug/mL,0.227
same,IRF Lucia reporter activity,RAW-Dual [2]; [4],0.0343 ± 0.017
same,IRF Lucia reporter activity,RAW-Dual [2]; agonist: LPS (TLR4) 0.1 ug/mL,0.583 ± 0.55
Cc1ccc(NCCCc2ccccc2)c(N)c1,IRF Lucia reporter activity,RAW-Dual [3]; [5],0.697 ± 0.18
C=CC(=O)Nc1cc(Nc2nccc(-c3cn(C)c4ccccc34)n2)c(OC)cc1N(C)CCN(C)C (library stock concentration (final ~1000-fold dilution): 10 mM),IRF Lucia reporter activity,RAW-Dual [2]; [4],0.0154
same,IRF Lucia reporter activity,RAW-Dual [2]; agonist: LPS (TLR4) 0.1 ug/mL,0.408
C=CC(=O)Nc1cc(Nc2nccc(-c3cn(C)c4ccccc34)n2)c(OC)cc1N(C)CCN(C)C,IRF Lucia reporter activity,RAW-Dual [3]; [5],0.0182
CCN(CC)CCCCC(NC(=O)C(CC(C)C)NC(=O)C(C)NC(=O)C(Cc1ccccc1)NC(=O)c1ccc(C(C)(C)C)cc1)C(=O)NC(CO)C(=O)OC (centres undefined) (library stock concentration (final ~1000-fold dilution): 10 mM),IRF Lucia reporter activity,RAW-Dual [1]; [4],1.06
same,IRF Lucia reporter activity,RAW-Dual [1]; agonist: LPS (TLR4) 0.1 ug/mL,1.16
C#Cc1cccc(Nc2ncnc3cc4c(cc23)OCCOCCOCCO4)c1 (library stock concentration (final ~1000-fold dilution): 10 mM),IRF Lucia reporter activity,RAW-Dual [1]; [4],0.377
same,IRF Lucia reporter activity,RAW-Dual [1]; agonist: LPS (TLR4) 0.1 ug/mL,0.533
C#Cc1cccc(Nc2ncnc3cc4c(cc23)OCCOCCOCCO4)c1,IRF Lucia reporter activity,RAW-Dual [3]; [6],0.699
Cc1ncc(CO)c(CO)c1O (library stock concentration (final ~1000-fold dilution): 10 mM),IRF Lucia reporter activity,RAW-Dual [1]; [4],0.88
same,IRF Lucia reporter activity,RAW-Dual [1]; agonist: LPS (TLR4) 0.1 ug/mL,1.12
O=C(O)c1ccc(-c2c[nH]c3ncc(-c4ccccc4)cc23)cc1C1CCCC1,IRF Lucia reporter activity,RAW-Dual [3]; [6],0.903
O=C(O)c1ccc(-c2c[nH]c3ncc(-c4ccccc4)cc23)cc1C1CCCC1 (library stock concentration (final ~1000-fold dilution): 10 mM),IRF Lucia reporter activity,RAW-Dual [1]; [4],0.056
same,IRF Lucia reporter activity,RAW-Dual [1]; agonist: LPS (TLR4) 0.1 ug/mL,0.712
OC(c1ccccc1)(c1ccccc1)C12CC[N+](CCOCc3ccccc3)(CC1)CC2,IRF Lucia reporter activity,RAW-Dual [3]; [6],1.13
OC(c1ccccc1)(c1ccccc1)C12CC[N+](CCOCc3ccccc3)(CC1)CC2 (library stock concentration (final ~1000-fold dilution): 10 mM),IRF Lucia reporter activity,RAW-Dual [1]; [4],1.1
same,IRF Lucia reporter activity,RAW-Dual [1]; agonist: LPS (TLR4) 0.1 ug/mL,0.795
COc1cc2nccc(Oc3ccc(NC(=O)NC4CC4)c(Cl)c3)c2cc1C(N)=O.CS(=O)(=O)O (library stock concentration (final ~1000-fold dilution): 10 mM),IRF Lucia reporter activity,RAW-Dual [1]; [4],0.502
same,IRF Lucia reporter activity,RAW-Dual [1]; agonist: LPS (TLR4) 0.1 ug/mL,0.54
COc1cc2nccc(Oc3ccc(NC(=O)NC4CC4)c(Cl)c3)c2cc1C(N)=O.CS(=O)(=O)O,IRF Lucia reporter activity,RAW-Dual [3]; [6],0.583
COc1cc2c(cc1-c1c(C)noc1C)ncc1[nH]c(=O)n(C(C)c3ccccn3)c12 (centres undefined),IRF Lucia reporter activity,RAW-Dual [3]; [5],0.171
COc1cc2c(cc1-c1c(C)noc1C)ncc1[nH]c(=O)n(C(C)c3ccccn3)c12 (centres undefined) (library stock concentration (final ~1000-fold dilution): 10 mM),IRF Lucia reporter activity,RAW-Dual [2]; [4],0.483
same,IRF Lucia reporter activity,RAW-Dual [2]; agonist: LPS (TLR4) 0.1 ug/mL,0.19
O=c1oc2cc(O)ccc2c2ccc(O)cc12 (library stock concentration (final ~1000-fold dilution): 10 mM),IRF Lucia reporter activity,RAW-Dual [1]; [4],0.133
same,IRF Lucia reporter activity,RAW-Dual [1]; agonist: LPS (TLR4) 0.1 ug/mL,1.99
Cc1cc(Nc2ncc3c(n2)N(C)C(=O)N(c2cc(NC(=O)c4cccc(C(F)(F)F)c4)ccc2C)C3)n(C)n1 (library stock concentration (final ~1000-fold dilution): 10 mM),IRF Lucia reporter activity,RAW-Dual [2]; [4],0.0478
same,IRF Lucia reporter activity,RAW-Dual [2]; agonist: LPS (TLR4) 0.1 ug/mL,0.0205
O=C(Nc1nc2cccc(-c3ccc(CN4CCS(=O)(=O)CC4)cc3)n2n1)C1CC1 (library stock concentration (final ~1000-fold dilution): 10 mM),IRF Lucia reporter activity,RAW-Dual [1]; [4],1.1
same,IRF Lucia reporter activity,RAW-Dual [1]; agonist: LPS (TLR4) 0.1 ug/mL,3.4
CNCc1cc(-c2ccccc2F)n(S(=O)(=O)c2cccnc2)c1.O=C(O)/C=C/C(=O)O (library stock concentration (final ~1000-fold dilution): 10 mM),IRF Lucia reporter activity,RAW-Dual [1]; [4],1.17
same,IRF Lucia reporter activity,RAW-Dual [1]; agonist: LPS (TLR4) 0.1 ug/mL,1.14
Cc1cc(CN2CCN(c3c(Br)cnc4[nH]c(-c5ccc(N6CCN(C)CC6)cc5)nc34)CC2)no1,IRF Lucia reporter activity,"RAW-Dual [3]; library stock concentration (final ~1000-fold dilution): 2 mM, cytotoxicity flag (confluency mask): not cytotoxic",0.939
Cc1cc(CN2CCN(c3c(Br)cnc4[nH]c(-c5ccc(N6CCN(C)CC6)cc5)nc34)CC2)no1 (library stock concentration (final ~1000-fold dilution): 2 mM),IRF Lucia reporter activity,RAW-Dual [1]; [4],0.0281
same,IRF Lucia reporter activity,RAW-Dual [1]; agonist: LPS (TLR4) 0.1 ug/mL,0.176
CC(=O)Oc1ccccc1C(=O)O (library stock concentration (final ~1000-fold dilution): 10 mM),IRF Lucia reporter activity,RAW-Dual [1]; [4],1.05
same,IRF Lucia reporter activity,RAW-Dual [1]; agonist: LPS (TLR4) 0.1 ug/mL,0.995
CC(=O)Oc1ccccc1C(=O)O,IRF Lucia reporter activity,RAW-Dual [3]; [6],1.09
O=c1cc(-c2ccccc2)oc2cc(O)ccc12 (library stock concentration (final ~1000-fold dilution): 10 mM),IRF Lucia reporter activity,RAW-Dual [1]; [4],0.894
same,IRF Lucia reporter activity,RAW-Dual [1]; agonist: LPS (TLR4) 0.1 ug/mL,0.852
O=c1cc(-c2ccccc2)oc2cc(O)ccc12,IRF Lucia reporter activity,RAW-Dual [3]; [6],0.85
